The sequences are guide strands of siRNAs; only the seed at positions 2 to 7 varies.
Legend:
GL261 = assay: cell viability relative to siNT1 (ATP content); H4 human neuroglioma and GL261 mouse glioma; higher = less toxic; conditions: siRNA concentration 25 nM; 96 h; mouse
H4 = assay: as above; conditions: siRNA concentration 10 nM; 96 h; human
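Note: cells reverse transfected with siRNA duplexes via lipid reagent, ATP read by luminescence, triplicate wells, values scaled to mean viability with non-targeting control siNT1.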

UUAGUCAACAUGUAAACCA
cell viability (GL261): 45% | cell viability (H4): 90.5%

UUAGUCCACAUGUAAACCA
cell viability (GL261): 30.2% | cell viability (H4): 37.4%

UUAGUCGACAUGUAAACCA
cell viability (GL261): 65.8% | cell viability (H4): 100%

UUAGUCUACAUGUAAACCA
cell viability (GL261): 31.9% | cell viability (H4): 73.7%

UUAGUGAACAUGUAAACCA
cell viability (GL261): 76.4% | cell viability (H4): 76.8%

UUAGUGCACAUGUAAACCA
cell viability (GL261): 33.2% | cell viability (H4): 90.2%

UUAGUGGACAUGUAAACCA
cell viability (GL261): 35.9% | cell viability (H4): 50.6%

UUAGUGUACAUGUAAACCA
cell viability (GL261): 55.7% | cell viability (H4): 28.4%

UUAGUUAACAUGUAAACCA
cell viability (GL261): 66.9% | cell viability (H4): 71.8%

UUAGUUCACAUGUAAACCA
cell viability (GL261): 45.3% | cell viability (H4): 59%

UUAGUUGACAUGUAAACCA
cell viability (GL261): 71.6% | cell viability (H4): 72.8%

UUAGUUUACAUGUAAACCA
cell viability (GL261): 67.3% | cell viability (H4): 101%

UUAUAAAACAUGUAAACCA
cell viability (GL261): 64.4% | cell viability (H4): 100%

UUAUAACACAUGUAAACCA
cell viability (GL261): 46.4% | cell viability (H4): 65.2%

UUAUAAGACAUGUAAACCA
cell viability (GL261): 53.3% | cell viability (H4): 90.7%

UUAUAAUACAUGUAAACCA
cell viability (GL261): 60.4% | cell viability (H4): 94.4%

UUAUACAACAUGUAAACCA
cell viability (GL261): 47.6% | cell viability (H4): 74.2%

UUAUACCACAUGUAAACCA
cell viability (GL261): 36.2% | cell viability (H4): 47.7%

UUAUACGACAUGUAAACCA
cell viability (GL261): 54.7% | cell viability (H4): 77.7%

UUAUACUACAUGUAAACCA
cell viability (GL261): 23.9% | cell viability (H4): 40.5%

UUAUAGAACAUGUAAACCA
cell viability (GL261): 62.9% | cell viability (H4): 70.8%

UUAUAGCACAUGUAAACCA
cell viability (GL261): 26% | cell viability (H4): 26%

UUAUAGGACAUGUAAACCA
cell viability (GL261): 41.4% | cell viability (H4): 65.6%

UUAUAGUACAUGUAAACCA
cell viability (GL261): 58.2% | cell viability (H4): 48.4%

UUAUAUAACAUGUAAACCA
cell viability (GL261): 68.8% | cell viability (H4): 88.5%

UUAUAUCACAUGUAAACCA
cell viability (GL261): 20.7% | cell viability (H4): 73.6%

UUAUAUGACAUGUAAACCA
cell viability (GL261): 56.8% | cell viability (H4): 87.1%

UUAUAUUACAUGUAAACCA
cell viability (GL261): 34.2% | cell viability (H4): 79.9%

UUAUCAAACAUGUAAACCA
cell viability (GL261): 45.9% | cell viability (H4): 76.8%

UUAUCACACAUGUAAACCA
cell viability (GL261): 30.1% | cell viability (H4): 63.3%

UUAUCAGACAUGUAAACCA
cell viability (GL261): 41.1% | cell viability (H4): 70.6%

UUAUCAUACAUGUAAACCA
cell viability (GL261): 50.1% | cell viability (H4): 75.7%

UUAUCCAACAUGUAAACCA
cell viability (GL261): 41.7% | cell viability (H4): 74.7%

UUAUCCCACAUGUAAACCA
cell viability (GL261): 16.5% | cell viability (H4): 9.25%

UUAUCCGACAUGUAAACCA
cell viability (GL261): 33.8% | cell viability (H4): 82%

UUAUCCUACAUGUAAACCA
cell viability (GL261): 35.9% | cell viability (H4): 51.9%

UUAUCGAACAUGUAAACCA
cell viability (GL261): 49.7% | cell viability (H4): 93.6%

UUAUCGCACAUGUAAACCA
cell viability (GL261): 38% | cell viability (H4): 51.8%

UUAUCGGACAUGUAAACCA
cell viability (GL261): 61.7% | cell viability (H4): 74.1%

UUAUCGUACAUGUAAACCA
cell viability (GL261): 34.6% | cell viability (H4): 88.6%

UUAUCUAACAUGUAAACCA
cell viability (GL261): 43.9% | cell viability (H4): 102%

UUAUCUCACAUGUAAACCA
cell viability (GL261): 15.7% | cell viability (H4): 74%

UUAUCUGACAUGUAAACCA
cell viability (GL261): 59.3% | cell viability (H4): 87.2%

UUAUCUUACAUGUAAACCA
cell viability (GL261): 29.9% | cell viability (H4): 78%

UUAUGAAACAUGUAAACCA
cell viability (GL261): 61.5% | cell viability (H4): 82.4%

UUAUGACACAUGUAAACCA
cell viability (GL261): 36.9% | cell viability (H4): 32.1%

UUAUGAGACAUGUAAACCA
cell viability (GL261): 50.7% | cell viability (H4): 42.6%
